Test results from publication PMC10301922, “Anti-Oxidant, Anti-Mutagenic Activity and Safety Evaluation of Antrocin” (Toxics, 2023).

Test system: five Salmonella typhimurium tester strains
Assay: Ames test, overall result in five tester strains
Settings: TA98, TA100, TA102, TA 1535, TA1537, with or without S9, up to 0.05 mg/plate

`C=C1CC[C@H]2C(C)(C)CCC[C@@]23C(=O)OC[C@@H]13` [Antrocin, (-)-Antrocin] was tested. Which mutagenic effect did it give?
Its mutagenic effect is “no mutagenic effect”.
